# Results as given in PMC12820563.
# Some of the results follow. The list includes weakly bound sequences.
# Target: T1, MBP-FoxP3dN (UniProt Q99JB6)
# T1 sequence: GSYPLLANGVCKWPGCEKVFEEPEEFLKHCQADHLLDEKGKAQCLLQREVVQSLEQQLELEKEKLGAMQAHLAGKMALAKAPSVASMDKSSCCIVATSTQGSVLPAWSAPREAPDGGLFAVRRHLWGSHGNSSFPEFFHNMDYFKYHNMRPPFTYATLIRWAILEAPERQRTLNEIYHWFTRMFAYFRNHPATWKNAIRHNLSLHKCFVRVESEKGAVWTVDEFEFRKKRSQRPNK
# Experiment: PD-seq (MBP pull-down with sequencing)
# Conditions: 20 mM Tris-HCl pH 7.5, 100 mM NaCl, 1.5 mM MgCl2, 0.4 uM protein, 0.1 uM dsDNA library, 30 min, room temperature, amylose pull-down; high values mean tight binding; double strand, one strand shown
row,Sequence,binding signal (RPM ratio (pull-down/input))
1,GATGATTGTTCTCCCAGCTGATGAATTTCGTGAGTCGAGTAAACAAATTTTCCTAATCTTTCTGTTCAAGCGCCATCTAC,0.505
2,GATGATTGTTCTCCCAGCTGATGAATTCTACCCATCGAGTAAACAAATTTTCCTAATCTTTCTGTTCAAGCGCCATCTAC,0.282
3,GATGATTGTTCTCCCAGCTGATGAATTGATCAGGTCGAGTAAACAAATTTTCCTAATCTTTCTGTTCAAGCGCCATCTAC,0.232
4,GATGATTGTTCTCCCAGCTGATGAATTGGGACACTCGAGTAAACAAATTTTCCTAATCTTTCTGTTCAAGCGCCATCTAC,1.27
5,GATGATTGTTCTCCCAGCTGATGAATTGAACTGGTCGAGTAAACAAATTTTCCTAATCTTTCTGTTCAAGCGCCATCTAC,0.209
6,GATGATTGTTCTCCCAGCTGATGAATTCATGGGATCGAGTAAACAAATTTTCCTAATCTTTCTGTTCAAGCGCCATCTAC,0.286
7,GATGATTGTTCTCCCAGCTGATGAATTGGATTCATCGAGTAAACAAATTTTCCTAATCTTTCTGTTCAAGCGCCATCTAC,0.418
8,GATGATTGTTCTCCCAGCTGATGAATTGTCACCATCGAGTAAACAAATTTTCCTAATCTTTCTGTTCAAGCGCCATCTAC,0.682
9,GATGATTGTTCTCCCAGCTGATGAATTGCAGATCTCGAGTAAACAAATTTTCCTAATCTTTCTGTTCAAGCGCCATCTAC,0.553
10,GATGATTGTTCTCCCAGCTGATGAATTAAGCTATTCGAGTAAACAAATTTTCCTAATCTTTCTGTTCAAGCGCCATCTAC,1.95
11,GATGATTGTTCTCCCAGCTGATGAATTGCTCACATCGAGTAAACAAATTTTCCTAATCTTTCTGTTCAAGCGCCATCTAC,0.686
12,GATGATTGTTCTCCCAGCTGATGAATTGGGCTTTTCGAGTAAACAAATTTTCCTAATCTTTCTGTTCAAGCGCCATCTAC,2.22
13,GATGATTGTTCTCCCAGCTGATGAATTCCGGCTTTCGAGTAAACAAATTTTCCTAATCTTTCTGTTCAAGCGCCATCTAC,0.891
14,GATGATTGTTCTCCCAGCTGATGAATTTCTGGGATCGAGTAAACAAATTTTCCTAATCTTTCTGTTCAAGCGCCATCTAC,0.212
15,GATGATTGTTCTCCCAGCTGATGAATTCCTTTATTCGAGTAAACAAATTTTCCTAATCTTTCTGTTCAAGCGCCATCTAC,0.445
16,GATGATTGTTCTCCCAGCTGATGAATTACTCGCTTCGAGTAAACAAATTTTCCTAATCTTTCTGTTCAAGCGCCATCTAC,0.366
17,GATGATTGTTCTCCCAGCTGATGAATTGAAACCGTCGAGTAAACAAATTTTCCTAATCTTTCTGTTCAAGCGCCATCTAC,0.248
18,GATGATTGTTCTCCCAGCTGATGAATTAAACTTATCGAGTAAACAAATTTTCCTAATCTTTCTGTTCAAGCGCCATCTAC,0.491
19,GATGATTGTTCTCCCAGCTGATGAATTTCCCGTTTCGAGTAAACAAATTTTCCTAATCTTTCTGTTCAAGCGCCATCTAC,0.25
20,GATGATTGTTCTCCCAGCTGATGAATTATGCTTGTCGAGTAAACAAATTTTCCTAATCTTTCTGTTCAAGCGCCATCTAC,4.71
21,GATGATTGTTCTCCCAGCTGATGAATTACGCAACTCGAGTAAACAAATTTTCCTAATCTTTCTGTTCAAGCGCCATCTAC,6.03

row,Sequence,binding signal (RPM ratio (pull-down/input))
1,GATGATTGTTCTCCCAGCTGATGAATTGGTAGCCTCGAGTAAACAAATTTTCCTAATCTTTCTGTTCAAGCGCCATCTAC,0.924
2,GATGATTGTTCTCCCAGCTGATGAATTAACTAAGTCGAGTAAACAAATTTTCCTAATCTTTCTGTTCAAGCGCCATCTAC,0.206
3,GATGATTGTTCTCCCAGCTGATGAATTATGAGACTCGAGTAAACAAATTTTCCTAATCTTTCTGTTCAAGCGCCATCTAC,0.829
4,GATGATTGTTCTCCCAGCTGATGAATTGCAGGGTTCGAGTAAACAAATTTTCCTAATCTTTCTGTTCAAGCGCCATCTAC,0.708
5,GATGATTGTTCTCCCAGCTGATGAATTTATGGAGTCGAGTAAACAAATTTTCCTAATCTTTCTGTTCAAGCGCCATCTAC,0.454
6,GATGATTGTTCTCCCAGCTGATGAATTAGGCAACTCGAGTAAACAAATTTTCCTAATCTTTCTGTTCAAGCGCCATCTAC,4.84
7,GATGATTGTTCTCCCAGCTGATGAATTCAATAGGTCGAGTAAACAAATTTTCCTAATCTTTCTGTTCAAGCGCCATCTAC,0.536
8,GATGATTGTTCTCCCAGCTGATGAATTCGTGGATTCGAGTAAACAAATTTTCCTAATCTTTCTGTTCAAGCGCCATCTAC,0.486
9,GATGATTGTTCTCCCAGCTGATGAATTGTGGCTGTCGAGTAAACAAATTTTCCTAATCTTTCTGTTCAAGCGCCATCTAC,1.13
10,GATGATTGTTCTCCCAGCTGATGAATTACAGAAGTCGAGTAAACAAATTTTCCTAATCTTTCTGTTCAAGCGCCATCTAC,0.212
11,GATGATTGTTCTCCCAGCTGATGAATTCTCTCAATCGAGTAAACAAATTTTCCTAATCTTTCTGTTCAAGCGCCATCTAC,0.226
12,GATGATTGTTCTCCCAGCTGATGAATTGCGGAGTTCGAGTAAACAAATTTTCCTAATCTTTCTGTTCAAGCGCCATCTAC,0.777
13,GATGATTGTTCTCCCAGCTGATGAATTGCGCATGTCGAGTAAACAAATTTTCCTAATCTTTCTGTTCAAGCGCCATCTAC,6.5
14,GATGATTGTTCTCCCAGCTGATGAATTTTACTTCTCGAGTAAACAAATTTTCCTAATCTTTCTGTTCAAGCGCCATCTAC,0.389
15,GATGATTGTTCTCCCAGCTGATGAATTAGATGCCTCGAGTAAACAAATTTTCCTAATCTTTCTGTTCAAGCGCCATCTAC,1.97
16,GATGATTGTTCTCCCAGCTGATGAATTCTACGGCTCGAGTAAACAAATTTTCCTAATCTTTCTGTTCAAGCGCCATCTAC,0.251
17,GATGATTGTTCTCCCAGCTGATGAATTGCTCTTGTCGAGTAAACAAATTTTCCTAATCTTTCTGTTCAAGCGCCATCTAC,0.594
18,GATGATTGTTCTCCCAGCTGATGAATTGAAGGGATCGAGTAAACAAATTTTCCTAATCTTTCTGTTCAAGCGCCATCTAC,0.265
19,GATGATTGTTCTCCCAGCTGATGAATTGTCAAAGTCGAGTAAACAAATTTTCCTAATCTTTCTGTTCAAGCGCCATCTAC,0.23
20,GATGATTGTTCTCCCAGCTGATGAATTGGCGGTTTCGAGTAAACAAATTTTCCTAATCTTTCTGTTCAAGCGCCATCTAC,0.642
21,GATGATTGTTCTCCCAGCTGATGAATTGTTTACATCGAGTAAACAAATTTTCCTAATCTTTCTGTTCAAGCGCCATCTAC,8.09

row,Sequence,binding signal (RPM ratio (pull-down/input))
1,GATGATTGTTCTCCCAGCTGATGAATTGTGCAGTTCGAGTAAACAAATTTTCCTAATCTTTCTGTTCAAGCGCCATCTAC,2.67
2,GATGATTGTTCTCCCAGCTGATGAATTCCAGTGATCGAGTAAACAAATTTTCCTAATCTTTCTGTTCAAGCGCCATCTAC,0.436
3,GATGATTGTTCTCCCAGCTGATGAATTGGTCCTTTCGAGTAAACAAATTTTCCTAATCTTTCTGTTCAAGCGCCATCTAC,0.372
4,GATGATTGTTCTCCCAGCTGATGAATTTATGCTGTCGAGTAAACAAATTTTCCTAATCTTTCTGTTCAAGCGCCATCTAC,1.5
5,GATGATTGTTCTCCCAGCTGATGAATTAGACCGTTCGAGTAAACAAATTTTCCTAATCTTTCTGTTCAAGCGCCATCTAC,0.354
6,GATGATTGTTCTCCCAGCTGATGAATTTACACCCTCGAGTAAACAAATTTTCCTAATCTTTCTGTTCAAGCGCCATCTAC,0.624
7,GATGATTGTTCTCCCAGCTGATGAATTGGGTATTTCGAGTAAACAAATTTTCCTAATCTTTCTGTTCAAGCGCCATCTAC,1.57
8,GATGATTGTTCTCCCAGCTGATGAATTCACCACGTCGAGTAAACAAATTTTCCTAATCTTTCTGTTCAAGCGCCATCTAC,0.313
9,GATGATTGTTCTCCCAGCTGATGAATTCACCTCTTCGAGTAAACAAATTTTCCTAATCTTTCTGTTCAAGCGCCATCTAC,0.33
10,GATGATTGTTCTCCCAGCTGATGAATTTTAGCTTTCGAGTAAACAAATTTTCCTAATCTTTCTGTTCAAGCGCCATCTAC,0.989
11,GATGATTGTTCTCCCAGCTGATGAATTTGTAGCCTCGAGTAAACAAATTTTCCTAATCTTTCTGTTCAAGCGCCATCTAC,4.2
12,GATGATTGTTCTCCCAGCTGATGAATTTGGGCCTTCGAGTAAACAAATTTTCCTAATCTTTCTGTTCAAGCGCCATCTAC,1.67
13,GATGATTGTTCTCCCAGCTGATGAATTATCGAAGTCGAGTAAACAAATTTTCCTAATCTTTCTGTTCAAGCGCCATCTAC,0.238
14,GATGATTGTTCTCCCAGCTGATGAATTCAGCATATCGAGTAAACAAATTTTCCTAATCTTTCTGTTCAAGCGCCATCTAC,2.27
15,GATGATTGTTCTCCCAGCTGATGAATTTGTCCTGTCGAGTAAACAAATTTTCCTAATCTTTCTGTTCAAGCGCCATCTAC,3.03
16,GATGATTGTTCTCCCAGCTGATGAATTCCTTTAGTCGAGTAAACAAATTTTCCTAATCTTTCTGTTCAAGCGCCATCTAC,0.332
17,GATGATTGTTCTCCCAGCTGATGAATTAGCGAGATCGAGTAAACAAATTTTCCTAATCTTTCTGTTCAAGCGCCATCTAC,0.318
18,GATGATTGTTCTCCCAGCTGATGAATTCCTAACGTCGAGTAAACAAATTTTCCTAATCTTTCTGTTCAAGCGCCATCTAC,0.305
19,GATGATTGTTCTCCCAGCTGATGAATTCTGAGTCTCGAGTAAACAAATTTTCCTAATCTTTCTGTTCAAGCGCCATCTAC,1.61
20,GATGATTGTTCTCCCAGCTGATGAATTGCCGTCTTCGAGTAAACAAATTTTCCTAATCTTTCTGTTCAAGCGCCATCTAC,0.729
21,GATGATTGTTCTCCCAGCTGATGAATTAACTCACTCGAGTAAACAAATTTTCCTAATCTTTCTGTTCAAGCGCCATCTAC,0.382
